Measured values: the supplement of paper PMC11369174, “Proteome-scale characterisation of motif-based interactome rewiring by disease mutations” (Molecular Systems Biology, 2024)
This is one part of the list. The data scatter; read single values as rough.

Columns and labels:
Test in all cases: mutation enrichment score (mutant vs wild-type peptide binding to bait); baits are purified protein domains named by gene / domain / UniProt id / residues; peptides come from disordered regions of human proteins; higher = mutation enhances binding relative to wild type
[1] = molecular target: T1, CHD1_tandem-chromo__O14646_268_443; conditions: number of wild-type / mutant comparisons summed (bounds the score): 5; paper call: no_effect; wild-type window: …
T1 chain: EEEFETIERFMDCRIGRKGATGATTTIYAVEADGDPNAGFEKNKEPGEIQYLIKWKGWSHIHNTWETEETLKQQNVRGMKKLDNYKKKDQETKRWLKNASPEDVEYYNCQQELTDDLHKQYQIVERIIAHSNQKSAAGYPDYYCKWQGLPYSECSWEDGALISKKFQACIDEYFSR

[2] = molecular target: WDR5_WD_1234567_P61964_21_334; conditions: number of wild-type / mutant comparisons summed (bounds the score): 6; paper call: no_effect; wild-type window: …
SNX9_SH3_1_Q9Y5X1_3_61 = conditions: number of wild-type / mutant comparisons summed (bounds the score): 12; paper call: no_effect; wild-type window: …
[3] = molecular target: T2, CLTC_Clathrin-propeller__Q00610_1_364; conditions: number of wild-type / mutant comparisons summed (bounds the score): 6; paper call: no_effect; wild-type window: …
T2 chain: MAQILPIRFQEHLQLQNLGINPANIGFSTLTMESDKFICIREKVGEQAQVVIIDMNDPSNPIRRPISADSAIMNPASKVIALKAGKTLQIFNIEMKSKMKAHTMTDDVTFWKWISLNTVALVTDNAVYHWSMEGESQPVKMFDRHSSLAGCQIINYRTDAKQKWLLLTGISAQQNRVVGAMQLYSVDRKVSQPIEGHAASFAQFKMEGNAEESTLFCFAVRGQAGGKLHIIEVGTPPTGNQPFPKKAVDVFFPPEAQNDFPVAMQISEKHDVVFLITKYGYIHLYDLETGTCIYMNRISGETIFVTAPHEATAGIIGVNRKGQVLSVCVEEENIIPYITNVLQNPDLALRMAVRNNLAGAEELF

[4] = molecular target: KPNB1_Heat_1_Q14974_127_876; conditions: number of wild-type / mutant comparisons summed (bounds the score): 2; paper call: no_effect; wild-type window: …
[5] = molecular target: T3, EPHA3_Pkinase__P29320_606_947; conditions: number of wild-type / mutant comparisons summed (bounds the score): 6; paper call: no_effect; wild-type window: …
T3 chain: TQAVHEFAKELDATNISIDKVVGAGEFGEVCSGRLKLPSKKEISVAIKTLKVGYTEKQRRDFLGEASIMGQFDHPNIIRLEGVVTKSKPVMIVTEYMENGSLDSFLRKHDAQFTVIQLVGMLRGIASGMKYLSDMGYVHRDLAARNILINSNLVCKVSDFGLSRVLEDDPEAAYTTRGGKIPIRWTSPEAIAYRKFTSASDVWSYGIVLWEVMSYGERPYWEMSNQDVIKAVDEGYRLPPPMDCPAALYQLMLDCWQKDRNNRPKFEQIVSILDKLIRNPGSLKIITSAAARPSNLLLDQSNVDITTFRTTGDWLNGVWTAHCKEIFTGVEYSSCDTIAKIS

[6] = molecular target: T4, EPHB2_Pkinase__P29323_604_898; conditions: number of wild-type / mutant comparisons summed (bounds the score): 6; paper call: no_effect; wild-type window: …
T4 chain: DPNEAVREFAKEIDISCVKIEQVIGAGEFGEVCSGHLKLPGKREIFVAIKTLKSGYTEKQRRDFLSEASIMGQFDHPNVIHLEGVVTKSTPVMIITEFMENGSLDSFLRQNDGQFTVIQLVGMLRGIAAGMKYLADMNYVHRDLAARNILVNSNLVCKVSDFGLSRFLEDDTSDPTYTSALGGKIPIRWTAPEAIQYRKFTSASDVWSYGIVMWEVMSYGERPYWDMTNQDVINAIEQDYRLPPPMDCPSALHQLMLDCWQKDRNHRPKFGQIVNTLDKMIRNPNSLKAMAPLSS

SWKEIVNLLYELLASLIRGNSSNCALFSTNLDWLVSKLDRL [R533S R533S]
mutation enrichment score [1]: 3

VLMKTAHGHLVPDRVDKDKEVTKPEFNNHKDYAQEKPSRLK [A1365V A1365V]
mutation enrichment score [2]: 1

VPHRPQERRSSNISQASRSPAMLPVNGKMHSAVDCNGVVSL [P610A P610A]
mutation enrichment score (SNX9_SH3_1_Q9Y5X1_3_61): -3

VPHRPQERRSSNISQASRSPTMLPVNGKMHSAVDCNGVVSL [P610T P610T]
mutation enrichment score (SNX9_SH3_1_Q9Y5X1_3_61): -3

GTDEEDCPLPEEIRQDLLDFLQDLLAHCGIQLDGEEEEPEE [H2035L H2035L]
mutation enrichment score [3]: -6 | mutation enrichment score [4]: 2

EAMVDKLAENAHNVWARDRIQQGWTYGIQQDVKNRRNPRLV [R1013Q R1013Q]
mutation enrichment score [5]: 2 | mutation enrichment score [6]: 2
